Test results reported in PubChem BioAssay AID1508623 (National Center for Advancing Translational Sciences (NCATS), 2021).
In all, about 48,000 compounds went through this assay and about 450 (0.94%) were called active. Another 19% or so got no clear call; they are omitted. The call rests on the fitted dose curve; in most records, active means well fitted inhibition curve with a large enough effect; inconclusive means small, poorly fitted or top-dose-only effect; inactive means no such curve, though single readings can be large or run the other way. Some of the results follow.

Assay: Primary qHTS for Identification of Small Molecule Inhibitors of Huntingtin Promoter Activity; further: nearly all actives have a fitted effect of over 50% in size
Conditions: HEK293 HTT promoter firefly luciferase reporter (activity 0% = vehicle and -100% = no light), 24 h; series mostly up to 57.5 µM; activity change, negative = inhibition: at the top concentration
Outline: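 Luminescence was read after Dual-Glo reagent and a 10 min room-temperature incubation. Values were normalized to vehicle (0% activity) and zero RLU (-100% activity). Reporter HEK293 cells had been exposed to compounds (up to 57.5 uM final) for 24 h.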

Activity change, negative = inhibition, inactive:
COc1ccc(-c2c3c(=O)n(C)c(=O)n(C)c3c3c(-c4ccc(C)cc4)nc4ccccc4n23)cc1 -5.87% [at 11.5 µM]
Cc1ccc(CSc2nc(=O)c3c(n2C)NC(=O)CC3c2ccc(OC(C)C)cc2)cc1 (configuration not stated) -19.8%
CCN1CCC(N(Cc2cccc(OC)c2)C(=O)Nc2ccc(C)cc2Cl)CC1 -10.9%
COc1cc(NC(=O)c2cnn(-c3cccc(F)c3)c2C2CCNCC2)cc(OC)c1OC 0.368%
CCc1nnc(NC(=O)CSCc2cc(=O)c3ccc(C)cc3[nH]2)s1 -0.168%
Cc1cc(O)c(C(c2ccccc2Cl)N2CCN(c3ccccc3)CC2)c(=O)n1Cc1ccco1 (configuration not stated) 2.87%
Cc1ccc(C)c(NC(=O)CCCn2nc(C)c3sc4ccccc4c3c2=O)c1 -2%
COc1ccc(NC(=O)CN(Cc2ccccc2)S(=O)(=O)c2ccc3nc(C)sc3c2)cc1 -26.6%
CCCN(CCC)CCNC(=O)c1cc2c(-c3ccccc3F)nn(C)c2s1 -10.4%
CCN(CC)CCNC(=O)Cn1ncc2c([nH]c3ccccc32)c1=O -8.16%
CN1C2CCC1CC(OC(=O)C(CO)c1ccccc1)C2 (configuration not stated) 1.5%
CCCCN(CC)CCCNC(=O)c1cc2c(-c3ccc(OC)c(OC)c3)nn(C)c2s1 10%
CCOc1ccc(-c2cnc(NCc3ccc(OC)cc3OC)n2C)cc1 -7.4%
COCCNC(=O)C1CCCN(S(=O)(=O)c2ccc3c(ccn3C)c2)C1 (configuration not stated) -4.67%
Cn1nc(C(=O)N2CCN(c3ccccc3F)CC2)c2c1-c1ccccc1SC2 -18.4%
O=C1c2oc3ccc(F)cc3c(=O)c2C(c2cccc([N+](=O)[O-])c2)N1CCCN1CCOCC1 (configuration not stated) -8.77%
Cc1ccc(NC(=O)c2cccn2-c2nnc(N3CCCCC3)s2)cc1Cl -18.2%
Cc1ccc2nc(N(Cc3cccnc3)C(=O)C3COc4ccccc4O3)sc2c1 (configuration not stated) 25%
Cc1ccc(CSc2cn(CC(=O)N3CCCCC3)c3ccccc23)cc1 -6.44%
COc1ccc(Cl)cc1NC(=O)CCC(=O)c1ccc(C)cc1 -18.6%
CC(=O)c1ccc(NC(=O)c2ncn(-c3ccccc3)n2)cc1 75%
CCCCNC(=O)CCCn1c(=O)c2ccccc2n(Cc2ccccc2C)c1=O -7.92%
CCn1cc(C(=O)NCCc2ccccc2)c(=O)c2cc(S(=O)(=O)N(C)C3CCCCC3)ccc21 -5.73%
CC(=O)c1[nH]c(C)c(C(=O)NCCc2ccc(C)cc2)c1C -1.56%
COc1ccc(-c2noc(-c3ccc(NCc4ccccc4OC)c([N+](=O)[O-])c3)n2)cc1 -7.31%
Cc1ccc(C2=Nc3ccccc3N(CC(=O)Nc3cccc(F)c3)C(=O)C2)cc1C 47.6%
CC(=O)Nc1cccc(C(=O)NCc2ccc3c(c2)CCN3C(C)=O)c1 -21%
